Reference: the supplement of paper PMC9151546
Many values rest on one well or one pass, so single values are uncertain.

Columns and labels:
CHO-K1 [1] = assay: relative survival (nuclei to bead ratio vs DMSO control) (% of vehicle control); higher = more surviving cells
Experimental: (§1)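 Flow-cytometric in vitro micronucleus assay (Litron MicroFlow) in CHO-K1 cells in 96-well plates, 19 concentrations (4.5-200 µM, n=1 per concentration). Without S9, cells were exposed for 24 h and sampled at 48 h. With Aroclor 1254-induced rat liver S9, cells were exposed for 3-4 h and sampled at 27-28 h. Read-outs are %MN and %hypodiploid nuclei relative to nucleated events, and relative survival as the nuclei-to-bead ratio versus the 1% DMSO vehicle control (x100).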

CHO-K1 [2] = assay: micronucleus frequency (% of nucleated events); higher = more micronuclei (genotoxic)
CHO-K1 [3] = assay: hypodiploid nuclei frequency (% of nucleated events); higher = more hypodiploid events (aneugenic)
Experimental: as §1
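Throughout, for hypodiploid nuclei frequency (% of nucleated events): hypodiploid nuclei gated on a flow cytometer with 488 nm excitation after SYTOX Green staining, cultures at 37 °C, positive controls vinblastine without S9 and cyclophosphamide with S9.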
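Throughout, for micronucleus frequency (% of nucleated events): cells lysed with nuclei stained by SYTOX Green, then micronucleus-gated events counted against nucleated events by flow cytometry with 488 nm excitation.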
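Throughout, for relative survival (nuclei to bead ratio vs DMSO control): Lysed-cell nuclei stained with SYTOX Green and counted against counting beads by flow cytometry at 488 nm excitation, with vinblastine (no S9) and cyclophosphamide (plus S9) as positive controls.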

CC(C)=CCC/C(C)=C/C=O [3,7-Dimethyl-2,6-octadienal]
Conditions | hypodiploid nuclei frequency, CHO-K1 [3] [%] | micronucleus frequency, CHO-K1 [2] [%] | relative survival, CHO-K1 [1]
concentration: 4.5 (µM), S9 metabolic activation: with S9, exposure time: 3-4 hours | 0.2 | 0.86 | 105
concentration: 4.5 (µM), S9 metabolic activation: without S9, exposure time: 24 hours | 0.76 | 1.54 | 116
concentration: 5.63 (µM), S9 metabolic activation: with S9, exposure time: 3-4 hours | 0.32 | 0.94 | 104
concentration: 5.63 (µM), S9 metabolic activation: without S9, exposure time: 24 hours | 0.4 | 1.38 | 102
concentration: 7.04 (µM), S9 metabolic activation: with S9, exposure time: 3-4 hours | 0.34 | 0.9 | 123
concentration: 7.04 (µM), S9 metabolic activation: without S9, exposure time: 24 hours | 0.7 | 1.44 | 101
concentration: 8.8 (µM), S9 metabolic activation: with S9, exposure time: 3-4 hours | 0.3 | 1.34 | 125
concentration: 8.8 (µM), S9 metabolic activation: without S9, exposure time: 24 hours | 0.7 | 1.04 | 106
concentration: 11 (µM), S9 metabolic activation: with S9, exposure time: 3-4 hours | 0.22 | 0.78 | 113
concentration: 11 (µM), S9 metabolic activation: without S9, exposure time: 24 hours | 0.64 | 1.14 | 95.9
concentration: 13.7 (µM), S9 metabolic activation: with S9, exposure time: 3-4 hours | 0.18 | 1.3 | 108
concentration: 13.7 (µM), S9 metabolic activation: without S9, exposure time: 24 hours | 0.68 | 1.6 | 113
concentration: 17.2 (µM), S9 metabolic activation: with S9, exposure time: 3-4 hours | 0.18 | 0.82 | 115
concentration: 17.2 (µM), S9 metabolic activation: without S9, exposure time: 24 hours | 0.68 | 1.06 | 102
concentration: 21.5 (µM), S9 metabolic activation: with S9, exposure time: 3-4 hours | 0.12 | 0.94 | 119
concentration: 21.5 (µM), S9 metabolic activation: without S9, exposure time: 24 hours | 0.5 | 1.22 | 68.8
concentration: 26.8 (µM), S9 metabolic activation: with S9, exposure time: 3-4 hours | 0.24 | 0.8 | 111
concentration: 26.8 (µM), S9 metabolic activation: without S9, exposure time: 24 hours | 0.8 | 1.1 | 65.8
concentration: 33.6 (µM), S9 metabolic activation: with S9, exposure time: 3-4 hours | 0.28 | 0.74 | 102
concentration: 33.6 (µM), S9 metabolic activation: without S9, exposure time: 24 hours | 2.58 | 1.22 | 54.7
concentration: 41.9 (µM), S9 metabolic activation: with S9, exposure time: 3-4 hours | 0.3 | 0.9 | 103
concentration: 41.9 (µM), S9 metabolic activation: without S9, exposure time: 24 hours | – | – | 40
concentration: 52.4 (µM), S9 metabolic activation: with S9, exposure time: 3-4 hours | 0.22 | 0.94 | 92.9
concentration: 52.4 (µM), S9 metabolic activation: without S9, exposure time: 24 hours | 1.14 | 1.36 | 87.9
concentration: 65.5 (µM), S9 metabolic activation: with S9, exposure time: 3-4 hours | 0.22 | 0.88 | 110
concentration: 65.5 (µM), S9 metabolic activation: without S9, exposure time: 24 hours | 1.02 | 1.72 | 99.1
concentration: 81.9 (µM), S9 metabolic activation: with S9, exposure time: 3-4 hours | 0.24 | 1.22 | 99.8
concentration: 81.9 (µM), S9 metabolic activation: without S9, exposure time: 24 hours | 0.94 | 1.44 | 75.9
concentration: 102 (µM), S9 metabolic activation: with S9, exposure time: 3-4 hours | 0.3 | 1.52 | 101
concentration: 102 (µM), S9 metabolic activation: without S9, exposure time: 24 hours | 1.04 | 1.3 | 71.1
concentration: 128 (µM), S9 metabolic activation: with S9, exposure time: 3-4 hours | 0.28 | 1.2 | 107
concentration: 128 (µM), S9 metabolic activation: without S9, exposure time: 24 hours | 0.96 | 1.74 | 88.2
concentration: 160 (µM), S9 metabolic activation: with S9, exposure time: 3-4 hours | 0.12 | 1.1 | 109
concentration: 160 (µM), S9 metabolic activation: without S9, exposure time: 24 hours | 1.36 | 1.9 | 72.1
concentration: 200 (µM), S9 metabolic activation: with S9, exposure time: 3-4 hours | 0.2 | 1.46 | 106
concentration: 200 (µM), S9 metabolic activation: without S9, exposure time: 24 hours | 1.46 | 2.04 | 75.9

OCCCBr [3-Bromo-1-propanol]
Conditions | hypodiploid nuclei frequency, CHO-K1 [3] [%] | micronucleus frequency, CHO-K1 [2] [%] | relative survival, CHO-K1 [1]
concentration: 4.5 (µM), S9 metabolic activation: with S9, exposure time: 3-4 hours | 0.36 | 1.72 | 107
concentration: 4.5 (µM), S9 metabolic activation: without S9, exposure time: 24 hours | 0.8 | 1.77 | 112
concentration: 5.63 (µM), S9 metabolic activation: with S9, exposure time: 3-4 hours | 0.3 | 1.48 | 97.2
concentration: 5.63 (µM), S9 metabolic activation: without S9, exposure time: 24 hours | 0.91 | 1.58 | 122
concentration: 7.04 (µM), S9 metabolic activation: with S9, exposure time: 3-4 hours | 0.14 | 1 | 90.5
concentration: 7.04 (µM), S9 metabolic activation: without S9, exposure time: 24 hours | 0.98 | 1.64 | 99.4
concentration: 8.8 (µM), S9 metabolic activation: with S9, exposure time: 3-4 hours | 0.18 | 1.38 | 137
concentration: 8.8 (µM), S9 metabolic activation: without S9, exposure time: 24 hours | 0.71 | 1.79 | 115
concentration: 11 (µM), S9 metabolic activation: with S9, exposure time: 3-4 hours | 0.18 | 1.02 | 109
concentration: 11 (µM), S9 metabolic activation: without S9, exposure time: 24 hours | 0.76 | 2.27 | 131.8
concentration: 13.7 (µM), S9 metabolic activation: with S9, exposure time: 3-4 hours | 0.26 | 1.04 | 107
concentration: 13.7 (µM), S9 metabolic activation: without S9, exposure time: 24 hours | 0.7 | 1.72 | 136
concentration: 17.2 (µM), S9 metabolic activation: with S9, exposure time: 3-4 hours | 0.12 | 0.92 | 124
concentration: 17.2 (µM), S9 metabolic activation: without S9, exposure time: 24 hours | 0.61 | 1.44 | 139
concentration: 21.5 (µM), S9 metabolic activation: with S9, exposure time: 3-4 hours | 0.2 | 1.1 | 130
concentration: 21.5 (µM), S9 metabolic activation: without S9, exposure time: 24 hours | 0.74 | 1.69 | 105
concentration: 26.8 (µM), S9 metabolic activation: with S9, exposure time: 3-4 hours | 0.24 | 1.26 | 93
concentration: 26.8 (µM), S9 metabolic activation: without S9, exposure time: 24 hours | 30.8 | 1.63 | 71.2
concentration: 33.6 (µM), S9 metabolic activation: with S9, exposure time: 3-4 hours | 0.5 | 1.92 | 91.7
concentration: 33.6 (µM), S9 metabolic activation: without S9, exposure time: 24 hours | 9.78 | 1.27 | 83.7
concentration: 41.9 (µM), S9 metabolic activation: with S9, exposure time: 3-4 hours | 0.22 | 1.38 | 76.4
concentration: 41.9 (µM), S9 metabolic activation: without S9, exposure time: 24 hours | 20.7 | 1.69 | 87.6
concentration: 52.4 (µM), S9 metabolic activation: with S9, exposure time: 3-4 hours | 0.16 | 1.18 | 107
concentration: 52.4 (µM), S9 metabolic activation: without S9, exposure time: 24 hours | 1.04 | 1.64 | 96.3
concentration: 65.5 (µM), S9 metabolic activation: with S9, exposure time: 3-4 hours | 0.34 | 1.6 | 96.4
concentration: 65.5 (µM), S9 metabolic activation: without S9, exposure time: 24 hours | 3.4 | 1.75 | 81.2
concentration: 81.9 (µM), S9 metabolic activation: with S9, exposure time: 3-4 hours | 0.26 | 1.84 | 111
concentration: 81.9 (µM), S9 metabolic activation: without S9, exposure time: 24 hours | 1.34 | 1.93 | 105
concentration: 102 (µM), S9 metabolic activation: with S9, exposure time: 3-4 hours | 0.26 | 1.6 | 102
concentration: 102 (µM), S9 metabolic activation: without S9, exposure time: 24 hours | 4.29 | 1.59 | 83.9
concentration: 128 (µM), S9 metabolic activation: with S9, exposure time: 3-4 hours | 0.2 | 1.88 | 108
concentration: 128 (µM), S9 metabolic activation: without S9, exposure time: 24 hours | 1.51 | 1.82 | 111
concentration: 160 (µM), S9 metabolic activation: with S9, exposure time: 3-4 hours | 0.42 | 0.96 | 100
concentration: 160 (µM), S9 metabolic activation: without S9, exposure time: 24 hours | 1.28 | 1.97 | 90.9
concentration: 200 (µM), S9 metabolic activation: with S9, exposure time: 3-4 hours | 0.14 | 1.4 | 107
concentration: 200 (µM), S9 metabolic activation: without S9, exposure time: 24 hours | 1.33 | 2.11 | 101
